Assay results as given in patent US8067379B2, “Sulfur compounds as inhibitors of hepatitis C virus NS3 serine protease” (Schering Corporation, priority 2004, dated 2011).

Molecular target: Recombinant heterodimeric HCV NS3/NS4A protease (strain 1a) (Hepatitis C virus genotype 1a, UniProt P27958)
Assay: Spectrophotometric assay for HCV serine protease inhibitory activity (chromogenic ester substrates)
Type: biochemical
Conditions: Ki* Range, Table 3A; class symbols

Compound | pKi
C=CCNC(=O)C(=O)[C@H](CC1CC1)NC(=O)[C@@H]1[C@@H]2[C@H](CN1C(=O)[C@@H](NC(=O)NC1(CS(=O)(=O)C(C)(C)COC)CCCCC1)C1(C)CCCCC1)C2(C)C [Compound 811] | > 7.12

Same assay, conditions: Table 3A; class symbols; read-out: Ki* Range

Compound | pKi
C=CCNC(=O)C(=O)[C@H](CCC1CC1)NC(=O)[C@@H]1[C@@H]2[C@H](CN1C(=O)[C@@H](NC(=O)NC1(CS(=O)(=O)C(C)(C)COC)CCCCC1)C(C)(C)C)C2(C)C [Compound 753] | > 7.12
C#CCNC(=O)C(=O)[C@H](CCC1CC1)NC(=O)[C@@H]1[C@@H]2[C@H](CN1C(=O)[C@@H](NC(=O)NC1(C3CCCCS3(=O)=O)CCCCC1)C(C)(C)C)C2(C)C (stereo partly drawn) [Compound 754] | > 7.12
C=CCNC(=O)C(=O)[C@H](CCCC)NC(=O)[C@@H]1[C@@H]2[C@H](CN1C(=O)[C@@H](NC(=O)NC1(CS(=O)(=O)C(C)(C)C)CCCCC1)C(C)(C)C)C2(Cl)Cl [Compound 755] | > 7.12
C=CCNC(=O)C(=O)[C@H](CCCC)NC(=O)[C@@H]1[C@@H]2[C@H](CN1C(=O)[C@@H](NC(=O)NC1(C3CCCCS3(=O)=O)CCCCC1)C1(C)CCCCC1)C2(C)C (stereo partly drawn) [Compound 756] | > 7.12
C=CCNC(=O)C(=O)C(CCC1CC1)NC(=O)[C@@H]1[C@@H]2[C@H](CN1C(=O)[C@@H](NC(=O)NC1(CS(=O)(=O)C(C)(C)C)CCCCC1)C(C)(C)C)C2(Cl)Cl (stereo partly drawn) [Compound 757] | > 7.12
C=CCNC(=O)C(=O)[C@H](CCC)NC(=O)[C@@H]1[C@@H]2[C@H](CN1C(=O)[C@@H](NC(=O)NC1(CS(=O)(=O)C(C)(C)C)CCCCC1)C(C)(C)C)C2(Cl)Cl [Compound 758] | > 7.12
CCCC[C@H](NC(=O)[C@@H]1[C@@H]2[C@H](CN1C(=O)[C@@H](NC(=O)NC1(CS(=O)(=O)C(C)(C)C)CCCCC1)C(C)(C)C)C2(Cl)Cl)C(=O)C(=O)NC1CC1 [Compound 759] | > 7.12
CCC[C@H](NC(=O)[C@@H]1[C@@H]2[C@H](CN1C(=O)[C@@H](NC(=O)NC1(CS(=O)(=O)C(C)(C)CO)CCCCC1)C1(C)CCCCC1)C2(C)C)C(=O)C(=O)NC1CC1 [Compound 761] | > 7.12
CC1([C@H](NC(=O)NC2(CS(=O)(=O)C(C)(C)CO)CCCCC2)C(=O)N2C[C@H]3[C@@H]([C@H]2C(=O)N[C@@H](CCC2CC2)C(=O)C(=O)NC2CC2)C3(C)C)CCCCC1 [Compound 762] | > 7.12
CCCC(NC(=O)[C@@H]1[C@@H]2[C@H](CN1C(=O)[C@@H](NC(=O)NC1(CS(=O)(=O)C(C)(C)C)CCCCC1)C1(C)CCCCC1)C2(C)C)C(=O)C(=O)NC1CC1 (stereo partly drawn) [Compound 763] | 6.60 to 7.12
CC(C)(C)[C@H](NC(=O)NC1(CS(=O)(=O)C(C)(C)C)CCCCC1)C(=O)N1C[C@H]2[C@@H]([C@H]1C(=O)NC(CCC1CC1)C(=O)C(=O)NC1CC1)C2(Cl)Cl (stereo partly drawn) [Compound 764] | > 7.12
C=CCNC(=O)C(=O)[C@H](CCCC)NC(=O)[C@@H]1[C@@H]2[C@H](CN1C(=O)[C@@H](NC(=O)NC1(CS(=O)(=O)C(C)(C)COC)CCCCC1)C(C)(C)C)C2(C)C [Compound 765] | > 7.12
CCC[C@H](NC(=O)[C@@H]1[C@@H]2[C@H](CN1C(=O)[C@@H](NC(=O)NC1(CS(=O)(=O)C(C)(C)CO)CCCCC1)C(C)(C)C)C2(C)C)C(=O)C(=O)NC1CC1 [Compound 766] | > 7.12
CCCC[C@H](NC(=O)[C@@H]1[C@@H]2[C@H](CN1C(=O)[C@@H](NC(=O)NC1(CS(=O)(=O)C(C)(C)COC)CCCCC1)C(C)(C)C)C2(C)C)C(=O)C(=O)NC1CC1 [Compound 767] | > 7.12
C=CCNC(=O)C(=O)[C@H](CCC)NC(=O)[C@@H]1[C@@H]2[C@H](CN1C(=O)[C@@H](NC(=O)NC1(CS(=O)(=O)C(C)(C)CO)CCCCC1)C(C)(C)C)C2(C)C [Compound 768] | > 7.12
C=C(F)CNC(=O)C(=O)[C@H](CC1CC1)NC(=O)[C@@H]1[C@@H]2[C@H](CN1C(=O)[C@@H](NC(=O)NC1(CS(=O)(=O)C(C)(C)C)CCCCC1)C(C)(C)C)C2(C)C [Compound 769] | > 7.12
CC1([C@H](NC(=O)NC2(CS(=O)(=O)C(C)(C)C)CCCCC2)C(=O)N2C[C@H]3[C@@H]([C@H]2C(=O)N[C@@H](CCC2CC2)C(=O)C(=O)NC2CC2)C3(C)C)CCCCC1 [Compound 770] | > 7.12
C=CCNC(=O)C(=O)[C@H](CCC1CC1)NC(=O)[C@@H]1[C@@H]2[C@H](CN1C(=O)[C@@H](NC(=O)NC1(CS(=O)(=O)C(C)(C)COCC)CCCCC1)C(C)(C)C)C2(C)C [Compound 771] | > 7.12
C=CCNC(=O)C(=O)[C@H](CCC1CC1)NC(=O)[C@@H]1[C@@H]2[C@H](CN1C(=O)[C@@H](NC(=O)NC1(CS(=O)(=O)C(C)(C)C)CCCCC1)C1CCCCC1)C2(C)C [Compound 772] | > 7.12
C=CCNC(=O)C(=O)[C@H](CC1CC1)NC(=O)[C@@H]1[C@@H]2[C@H](CN1C(=O)[C@@H](NC(=O)NC1(CS(=O)(=O)C(C)(C)COCC)CCCCC1)C(C)(C)C)C2(C)C [Compound 773] | > 7.12
C=CCNC(=O)C(=O)[C@H](CCCC)NC(=O)[C@@H]1[C@@H]2[C@H](CN1C(=O)[C@@H](NC(=O)NC1(CS(=O)(=O)C(C)(C)CF)CCCCC1)C(C)(C)C)C2(C)C [Compound 774] | > 7.12
C=CCNC(=O)C(=O)[C@H](CCCC)NC(=O)[C@@H]1[C@@H]2[C@H](CN1C(=O)[C@@H](NC(=O)NC1(CS(=O)(=O)C(C)(C)CO)CCCCC1)C(C)(C)C)C2(C)C [Compound 775] | > 7.12

Compound | pKi
C=CCNC(=O)C(=O)[C@H](CCCC)NC(=O)[C@@H]1[C@@H]2[C@H](CN1C(=O)[C@@H](NC(=O)NC1(CS(=O)(=O)C(C)(C)CO)CCCCC1)C1(C)CCCCC1)C2(C)C [Compound 776] | > 7.12
C=CCNC(=O)C(=O)[C@@H](CC1CC1)NC(=O)[C@@H]1CC2(CN1C(=O)[C@@H](NC(=O)NC1(CS(=O)(=O)C(C)(C)C)CCCCC1)C(C)(C)C)SCCCS2 [Compound 777] | 6.60 to 7.12
C=CCNC(=O)C(=O)C(CCCC)NC(=O)[C@@H]1CC2(CN1C(=O)[C@@H](NC(=O)NC1(C3CCCS3(=O)=O)CCCCC1)C(C)(C)C)SCCCS2 (stereo partly drawn) [Compound 778] | > 7.12
C=CCNC(=O)C(=O)C(CC1CC1)NC(=O)[C@@H]1CC2(CN1C(=O)[C@@H](NC(=O)NC1(C3CCCS3(=O)=O)CCCCC1)C(C)(C)C)SCCCS2 (stereo partly drawn) [Compound 779] | > 7.12
C=CCNC(=O)C(=O)[C@H](CCCC)NC(=O)[C@@H]1[C@@H]2[C@H](CN1C(=O)[C@@H](NC(=O)NC1(C3CCCS3(=O)=O)CCCCC1)C(C)(C)C)C2(Cl)Cl (stereo partly drawn) [Compound 787] | > 7.12
CCCC[C@H](NC(=O)[C@@H]1[C@@H]2[C@H](CN1C(=O)[C@@H](NC(=O)NC1(C3CCCS3(=O)=O)CCCCC1)C(C)(C)C)C2(Cl)Cl)C(=O)C(=O)NC1CC1 (stereo partly drawn) [Compound 788] | > 7.12
C=CCNC(=O)C(=O)[C@H](CCC)NC(=O)[C@@H]1[C@@H]2[C@H](CN1C(=O)[C@@H](NC(=O)NC1(C3CCCS3(=O)=O)CCCCC1)C(C)(C)C)C2(Cl)Cl (stereo partly drawn) [Compound 789] | > 7.12
CCC[C@H](NC(=O)[C@@H]1[C@@H]2[C@H](CN1C(=O)[C@@H](NC(=O)NC1(C3CCCS3(=O)=O)CCCCC1)C(C)(C)C)C2(Cl)Cl)C(=O)C(=O)NC1CC1 (stereo partly drawn) [Compound 790] | > 7.12
C=CCNC(=O)C(=O)[C@H](CC1CC1)NC(=O)[C@@H]1[C@@H]2[C@H](CN1C(=O)[C@@H](NC(=O)NC1(C3CCCS3(=O)=O)CCCCC1)C(C)(C)C)C2(Cl)Cl (stereo partly drawn) [Compound 791] | > 7.12
CCC[C@H](NC(=O)[C@@H]1[C@@H]2[C@H](CN1C(=O)[C@@H](NC(=O)NC1(C3CCCCS3(=O)=O)CCCCC1)C1(C)CCCCC1)C2(C)C)C(=O)C(=O)NC1CC1 (stereo partly drawn) [Compound 793] | > 7.12
C=CCNC(=O)C(=O)[C@H](CC1CC1)NC(=O)[C@@H]1[C@@H]2[C@H](CN1C(=O)[C@@H](NC(=O)NC1(CS(=O)(=O)C3CCCCC3)CCCCC1)C(C)(C)C)C2(C)C [Compound 796] | > 7.12
CCCC[C@H](NC(=O)[C@@H]1[C@@H]2[C@H](CN1C(=O)[C@@H](NC(=O)NC1(C3CCCCS3(=O)=O)CCCCC1)C1(C)CCCCC1)C2(C)C)C(=O)C(=O)NC1CC1 (stereo partly drawn) [Compound 797] | > 7.12
CCCC[C@H](NC(=O)[C@@H]1[C@@H]2[C@H](CN1C(=O)[C@@H](NC(=O)NC1(C3CCCS3(=O)=O)CCCCC1)C1(C)CCCCC1)C2(C)C)C(=O)C(=O)NC1CC1 (stereo partly drawn) [Compound 799] | > 7.12
CCCC[C@H](NC(=O)[C@@H]1[C@@H]2[C@H](CN1C(=O)[C@@H](NC(=O)NC1(C3CCCS3(=O)=O)CCCCC1)C(C)(C)C)C2(C)C)C(=O)C(=O)NC1CC1 (stereo partly drawn) [Compound 800] | > 7.12
CCCC[C@H](NC(=O)[C@@H]1[C@@H]2[C@H](CN1C(=O)[C@@H](NC(=O)NC1(C3CCCCS3(=O)=O)CCCCC1)C(C)(C)C)C2(C)C)C(=O)C(=O)NC1CC1 (stereo partly drawn) [Compound 803] | > 7.12
CCCC[C@H](NC(=O)[C@@H]1[C@@H]2[C@H](CN1C(=O)[C@@H](NC(=O)NC1([C@H]3CN(C)CCS3(=O)=O)CCCCC1)C(C)(C)C)C2(C)C)C(=O)C(=O)NC1CC1 [Compound 804] | > 7.12
C=CCNC(=O)C(=O)[C@H](CCCC)NC(=O)[C@@H]1[C@@H]2[C@H](CN1C(=O)[C@@H](NC(=O)NC1([C@H]3CN(C)CCS3(=O)=O)CCCCC1)C(C)(C)C)C2(C)C [Compound 805] | > 7.12
C=CCNC(=O)C(=O)[C@H](CCC1CC1)NC(=O)[C@@H]1[C@@H]2[C@H](CN1C(=O)[C@@H](NC(=O)NC1(CS(=O)(=O)C(C)(C)COC)CCCCC1)C1(C)CCCCC1)C2(C)C [Compound 806] | > 7.12
CCCC[C@H](NC(=O)[C@@H]1[C@@H]2[C@H](CN1C(=O)[C@@H](NC(=O)NC1(CS(=O)(=O)C(C)(C)COC)CCCCC1)C1(C)CCCCC1)C2(C)C)C(=O)C(=O)NC1CC1 [Compound 807] | > 7.12
CCCC[C@H](NC(=O)[C@@H]1[C@@H]2[C@H](CN1C(=O)[C@@H](NC(=O)NC1(CS(=O)(=O)C(C)(C)CO)CCCCC1)C(C)(C)C)C2(C)C)C(=O)C(=O)NC1CC1 [Compound 808] | > 7.12
CCCC[C@H](NC(=O)[C@@H]1[C@@H]2[C@H](CN1C(=O)[C@@H](NC(=O)NC1(CS(=O)(=O)C(C)(C)CO)CCCCC1)C1(C)CCCCC1)C2(C)C)C(=O)C(=O)NC1CC1 [Compound 809] | > 7.12
C=CCNC(=O)C(=O)[C@H](CCCC)NC(=O)[C@@H]1[C@@H]2[C@H](CN1C(=O)[C@@H](NC(=O)NC1([C@H]3CCCS3(=O)=O)CCCCC1)C(C)(C)C)C2(Cl)Cl [Compound 813] | > 7.12

pKi: −log10 of the molar value.
